Data reported in PubChem BioAssay AID743279 (National Center for Advancing Translational Sciences (NCATS), 2014).
The campaign covered roughly 360,000 compounds. About 17,000 (4.7%) were called active. Inconclusive means that the source gave no clear call. Such entries were picked first, then a sample of the others. No stated cut-off is given here; in the data, active means activity change below about -50%; inconclusive means mostly about -30% to -49%; inactive means weaker than that.

Test: qHTS for Inhibitors of Inflammasome Signaling: IL-1-beta AlphaLISA Primary Screen
Conditions: THP-1 LPS/ATP IL-1B secretion, 16 h; at 57.5 µM, hits give low values
In short: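 Secreted IL-1B measured by AlphaLISA bead assay after 16 h compound exposure of THP-1 cells; compounds (final up to 57.5 uM) added 1 h before LPS (250 ng/mL) and ATP (1.25 mM) stimulation; lower signal means less secretion.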
On the % scale 0 is the no-effect control and ±100 the full control effect.

Row | Structure (SMILES) | activity change
1 | CCOC(=O)c1cc2c(=O)n3ccccc3nc2n(CCOC)c1=NC(=O)c1c(-c2c(F)cccc2Cl)noc1C | active: -55.1%
2 | COc1ccc(C(=O)NCC(=O)N/N=C(C)\C=C\c2ccccc2)cc1OC | inconclusive: -38%
3 | COC(=O)c1[nH]c2ccc(C)cc2c1NC(=O)CN1CCCC(C)(C)C1 | inconclusive: -33.1%
4 | O=C(Cn1c2[n+](c3ccccc31)CC(O)CS2)c1ccccc1 (centres undefined) | inactive: 25.7%
5 | Cc1nc2c(C)cccc2cc1C(=O)N/N=C/c1cccnc1 | active: -66.9%
6 | COc1ccccc1OCCNC(=O)C(c1ccccc1)c1ccccc1 | inconclusive: -35.8%
7 | Cc1cc(Cl)ccc1OCC(=O)NCC(c1cccs1)N1CCOCC1 (centres undefined) | inconclusive: -38.4%
8 | CCN(CC)S(=O)(=O)c1ccc(N/N=C(\C)c2ccc(OC)cc2O)nc1 | inactive: 243%
9 | CN(C)CCC1(C2=CCCC2)CC/C(=C/c2ccc(Cl)cc2)C1=O (centres undefined) | active: -111%
10 | CCOc1ccc(N(C(=O)Nc2ccccc2)C2=NCCC2)cc1 | inconclusive: -43.6%
11 | CC(=O)c1nn(-c2ccc(Br)cc2)cc1C(=O)c1ccco1 | inconclusive: -48.5%
12 | Cc1ccccc1N1C(=O)c2cccc([N+](=O)[O-])c2C1=O | inconclusive: -44.5%
13 | O=C(COc1ccc(Br)cc1Cl)NC1CCN(Cc2ccccc2)CC1 | active: -81.1%
14 | O=C(/C=C/c1ccncc1)c1ccc(NC(=O)c2ccccc2F)cc1 | active: -104%
15 | COc1ccc(Oc2cccc(Cl)c2CNC(=O)CCCC(=O)O)cc1 | inactive: -4.92%
16 | CCc1nc2ccc(C(=O)Nc3ccc(OC)c(OC)c3)cn2c1N(C)Cc1ccc(OC)cc1 | inconclusive: -39.1%
17 | Oc1ccc(C(c2nnnn2CCc2ccccc2)N2CCN(c3nc4ccccc4s3)CC2)cc1 (centres undefined) | active: -50%
18 | Cn1cccc1C(=O)NCc1ccc(Cl)cc1 | inconclusive: -41.3%
19 | CCN(CC)c1ccc(/C=C(/C#N)C(=O)NCc2ccccc2)o1 | inconclusive: -44.5%
20 | COc1ccc(NC(=S)N2C3CCC2CC(NC(=O)NC24CC5CC(CC(C5)C2)C4)C3)c(OC)c1 (centres undefined) | inconclusive: -32.9%
21 | CN1CCN(c2nc(-c3ccc(Br)cc3)nnc2-c2ccccc2)CC1 | active: -57.9%
22 | COC(=O)CNC(=O)C(NC(=O)c1ccc(Cl)cc1)C(C)C (centres undefined) | inconclusive: -31.4%
23 | Cc1ccc(NC(=O)C2CCCN2C(=O)c2cccs2)cc1C (centres undefined) | inactive: -16.4%
24 | COCCCNC(=S)N1CCCN(c2nc3cc(C)c(C)cc3cc2C#N)CC1 | active: -74.3%
25 | COc1ccc(CCNS(=O)(=O)c2cccc(C(=O)O)c2)cc1OC | inactive: 13.3%
26 | COc1ccccc1NC(=O)Nc1nc(CC(=O)N2CCN(c3ccccc3OC)CC2)cs1 | active: -56.1%
27 | Nc1[nH]c(C(=O)c2ccccc2)c(-c2ccc(Cl)cc2Cl)c1C(=O)c1ccc(Cl)c(Cl)c1 | inconclusive: -41.3%

Row | Structure (SMILES) | activity change
28 | O=C(NC1=NCCS1)c1cccc(S(=O)(=O)N2CCOCC2)c1 | inactive: 2.52%
29 | CCSc1ccc(-c2cccc([N+](=O)[O-])c2)nn1 | inactive: -2.79%
30 | Oc1ccc(-c2[nH]ncc2-c2nc3ccccc3s2)c(O)c1 | inconclusive: -39.1%
31 | O=C(c1ccc(COc2ccc(Br)cc2)o1)N1N=C(C(F)F)CC1(O)C(F)F (centres undefined) | inconclusive: -45.5%
32 | CCN(CC)S(=O)(=O)c1ccc(-n2c(=O)c(C(C)C)c(C)n2C)cc1 | inactive: 2.9%
33 | Cc1cc(/C=C(/C#N)c2nc3ccccc3[nH]2)c(C)n1-c1cccc([N+](=O)[O-])c1 | active: -61.9%
34 | COCCn1c(C)cc(C(=O)COC(=O)/C=C/c2ccc(OC)cc2OC)c1C | inactive: -12.6%
35 | O=c1[nH]c2ccc(Cl)cc2c(-c2ccccc2)c1SC(=S)N1CCOCC1 | inconclusive: -48.8%
36 | COc1cccc(CNC(C)(C)CO)c1OCc1ccc(Cl)cc1 | active: -57.1%
37 | COc1ccnc(CSC(N)=Nc2ccc(F)cc2)c1 | active: -98.5%
38 | COc1ccc(N2CCN(C(=O)C3CCCN(c4ncnc5c4nc4n5CCCCC4)C3)CC2)cc1 (centres undefined) | inactive: -2.37%
39 | O=C(Nc1ccc([N+](=O)[O-])cc1)c1cccc(S(=O)(=O)Nc2cccnc2)c1 | inactive: 5.35%
40 | COc1cc(-c2cccc([C@H]3[C@@H]4C=CC[C@@H](C)[C@@H]4C(=O)N3Cc3ccccc3)c2)cc(OC)c1OC | inconclusive: -47.8%
41 | N#Cc1nc(-c2cccc3ccccc23)oc1NCCN1CCCCC1 | inconclusive: -41.7%
42 | CCn1c(=O)cc(OCC(=O)NC(C)c2ccc3c(c2)OCCO3)c2ccccc21 (centres undefined) | inconclusive: -30.4%
43 | O=C(Nc1cccc(-c2cn3cccnc3n2)c1)c1ccc(Br)o1 | inactive: -3.62%
44 | O=C1CSC(c2cn(-c3ccccc3)nc2-c2ccccc2)N1Cc1ccco1 (centres undefined) | inactive: -23.7%
45 | Cc1ccc(C)c(-n2[nH]c3c4c(ccc3c2=O)C(=O)c2ccccc2C4=O)c1 | inactive: -6.87%
46 | C=CCNC(=O)CN1C(=O)CSc2ccc(S(=O)(=O)N3CCOCC3)cc21 | inactive: 1.49%
47 | COc1ccc(CNC(=O)C2CCN(S(=O)(=O)N3CC(C)CC(C)C3)CC2)cc1 (centres undefined) | inactive: 0%
48 | C(=N\n1cncn1)/c1ccc(N2CCOCC2)cc1 | inconclusive: -33.7%
49 | CCCCc1ccc(NC(=O)C(C)CC)cc1 (centres undefined) | inconclusive: -40.1%
50 | CC(C)[C@@H](C(=O)NC1CCN(Cc2ccccc2)CC1)N1C(=O)N2CCc3c([nH]c4ccccc34)[C@@]2(C)C1=O | inconclusive: -49%
51 | Cc1ccc(C(=O)c2oc3ccccc3c2NC(=O)c2cc(-c3cc(C)ccc3O)n[nH]2)cc1 | inactive: 57.8%
52 | Cc1ccc2oc3c(c(=O)c2c1)C(c1cccs1)N(CCCN(C)C)C3=O (centres undefined) | inconclusive: -32.4%
53 | C=C(CN(C)C)C(=O)c1ccc(OC2OC(COC(C)=O)C(OC(C)=O)C(OC(C)=O)C2OC(C)=O)cc1 (centres undefined) | active: -101%
54 | CS(=O)(=O)c1cccc(C(=O)Nc2ccc3c(c2)OCCCO3)c1 | inactive: -12.4%
